Assay results reported in PubChem BioAssay AID1345082 (National Center for Advancing Translational Sciences (NCATS), 2018).
Out of some 94,000 compounds screened, about 4,000 (4.3%) were called active. The shares of active, inactive and inconclusive entries below differ from those in the screen. Calls follow the shape of the dose curve; as a rule, active = well fitted inhibition curve with a large enough effect; inconclusive = small, poorly fitted or top-dose-only effect; inactive = no such curve, though single readings can be large or run the other way. Potencies beside an inconclusive call are fits to weak or partial responses and may not hold up.

Test: Cytotoxic Profiling in NIH 3T3 Cell Line of Diverse Libraries Using Quantitative High-Throughput Screening; also: nearly all actives have a fitted effect of over 55% in size
Details: NIH 3T3 viability, CellTiter-Glo ATP luminescence, 48-72 h; series mostly up to 96.7 µM
Procedure, shortened: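 ATP-dependent luminescence (CellTiter-Glo) served as the viability signal for NIH 3T3 cells treated with compound for 48 or 72 hr at 37 °C.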
Potency is read from the fitted curve at half-maximal effect; tags tell the direction and shape of the fitted curve.

Structure (SMILES)	Potency
CCC(CC)C(=O)NC[C@@H]1C=C(C)[C@H](Cc2nc3ccc(C)cc3[nH]2)C[C@H]1C(C)C	inconclusive: 22.4 µM [inhibitor, full curve, poor fit]
O=C1CO[C@H]2CCN(Cc3ccccc3Cl)CC[C@@H]2N1c1ccccc1	inconclusive: 44.7 µM [inhibitor, partial curve]
COc1ccc(F)cc1-c1ccc(CN2CCC(NC(=O)c3ccccc3Cl)C2)cc1 (stereo unspecified)	inconclusive: 44.7 µM [inhibitor, partial curve, poor fit]
COc1ccccc1C(C)N(C)C(=O)c1csc2nc(-c3ccccc3C)cn12 (stereo unspecified)	inconclusive: 79.4 µM [inhibitor, partial curve, poor fit]
Cc1ccccc1CC(=O)N1CCC2(CCC(=O)N(Cc3ccccc3)C2)CC1	inconclusive: 25.1 µM [inhibitor, partial curve, poor fit]
O=C(NCc1cccc(F)c1)C1CCCN1C(=O)c1cccc(-c2ccccn2)c1 (stereo unspecified)	inactive
COc1cc(C(=O)N2CCCN(C)c3ccccc32)cc(OC)c1OC	inconclusive: 56.2 µM [inhibitor, partial curve, poor fit]
COc1ccc(-c2cc(C(=O)NCc3cccc(Cl)c3)c3cnn(C)c3n2)cc1	inconclusive: 28.2 µM [inhibitor, partial curve, poor fit]
O=C(c1ccco1)N1CCc2c(nc(-c3ccc(F)cc3)[nH]c2=O)C1	inconclusive: 50.1 µM [inhibitor, partial curve, poor fit]
COc1cccc(CNC(=O)c2nc3sccn3c2-c2cccc(C(F)(F)F)c2)c1	inconclusive: 35.5 µM [inhibitor, partial curve]
Cn1ncc2c(C(=O)NC3Cc4ccccc4C3)cc(-c3ccccc3C(F)(F)F)nc21	inconclusive: 12.6 µM [inhibitor, full curve, poor fit]
O=C(NCCCn1ccnc1)C1CCCN(c2nc(-c3ccccc3)nc3c2CCC3)C1 (stereo unspecified)	inconclusive: 31.6 µM [inhibitor, partial curve, poor fit]
O=C(N[C@H]1[C@H](O)[C@H](O)C[C@@H]1c1ccccc1)c1ccccn1	inconclusive: 126 µM [inhibitor, single point]
CC1(C(=O)N2CCC2)CN(Cc2ccccc2)Cc2ccc(N3CCOCC3)nc21 (stereo unspecified)	inconclusive: 56.2 µM [inhibitor, partial curve, poor fit]
Cn1ncc2c(C(=O)N3CCN(Cc4ccccc4)CC3)cc(-c3ccc(Cl)nc3)nc21	inconclusive: 50.1 µM [inhibitor, partial curve, poor fit]
O=C(NCCc1ccccn1)C1CC(=O)N(c2n[nH]c3ccccc23)C1 (stereo unspecified)	inactive
Clc1ccccc1Cc1nc(-c2ccc(OC3CCNC3)cc2)no1 (stereo unspecified)	active: 12.6 µM
Oc1cccc(-c2cc(C[C@@H]3CC[C@H](O)[C@@H](CNC4CCC4)O3)no2)c1	inactive
CCn1c(C2CCCN(Cc3ccccn3)C2)nn(C)c1=O (stereo unspecified)	inactive
COc1ccc(-c2cc3c(cn2)CN(Cc2ccncc2)CCN3)cc1	inconclusive: 100 µM [inhibitor, partial curve, poor fit]
COc1ccccc1-c1cc(-c2ccccc2)nc2c(C)noc12	inconclusive: 89.1 µM [inhibitor, partial curve, poor fit]

Structure (SMILES)	Potency
Cc1nc2cccnc2n1CC1CCCN(S(=O)(=O)Cc2ccccc2Cl)C1 (stereo unspecified)	inconclusive: 50.1 µM [inhibitor, partial curve, poor fit]
O=C(NC1CCCN(c2cc(-c3ccc(F)cc3)[nH]n2)C1)c1ccc2nc[nH]c2c1 (stereo unspecified)	inconclusive: 39.8 µM [inhibitor, partial curve, poor fit]
CCCCCNC(=O)[C@@H]1CCCN1c1ccnc2ccnn12	inconclusive: 39.8 µM [inhibitor, partial curve, poor fit]
CCN(CC)C(=O)CN1C(=O)C2(CCCCC2)C1c1ccccc1 (stereo unspecified)	inactive
COCCN1C(=O)CS(=O)(=O)C12CCN(C(=O)c1cc(F)ccc1F)CC2	inactive
CCOC(=O)c1ccc(NC(=O)COc2ccc(-c3nnc4n3CCCC4)cc2)cc1	inactive
Cc1ccc(-c2nnc3ccc(-c4ccoc4)nn23)nc1	active: 100 µM
O=C(Cn1cnnn1)NCc1ccc(-c2cnc3c(Oc4ccccc4)nccn23)cc1	inactive
COc1ccc(CC(=O)NC2CCN(c3nccc(Nc4ccc(OC)cc4)n3)CC2)cc1	active: 35.5 µM
O=C(c1nnc(CNC2CCOCC2)n1-c1ccccc1)N1CCC[C@@H]1C(c1ccccc1)c1ccccc1	inconclusive: 50.1 µM [inhibitor, partial curve, poor fit]
Cn1c([C@H]2CCN(Cc3cnc4ccccc4c3)C2)nc2ccccc21	inconclusive: 50.1 µM [inhibitor, partial curve, poor fit]
COc1ccc(F)cc1-c1cccc(C(=O)NCCNC(=O)C2CC2)c1	inconclusive: 50.1 µM [inhibitor, partial curve, poor fit]
COc1ccc(CN2C=C(C(=O)OCc3noc(-c4ccccc4)n3)C(C)=NS2(=O)=O)cc1	inconclusive: 17.8 µM [inhibitor, full curve]
Cn1ncc2c(C(=O)NCC3CC3)cc(-c3ccc(F)cc3)nc21	inactive
c1ccc(Oc2nccn3c(-c4ccc(CNCc5ccn[nH]5)cc4)cnc23)cc1	inconclusive: 100 µM [inhibitor, single point]
O=C(NCc1ccc(F)cc1)c1cc(-c2cccc(C(F)(F)F)c2)c2cccn2n1	inconclusive: 25.1 µM [inhibitor, full curve]
N#Cc1cccc(CN2CC[C@H](c3nc4ccccc4[nH]3)C2)c1	active: 56.2 µM
O=C(O)CCC1CCN(c2cc(NC3CC3)ncn2)CC1	inactive
COc1ccc(-c2nn(-c3ccccc3)cc2CN2CCN(C)CC2)c(F)c1	inconclusive: 50.1 µM [inhibitor, partial curve, poor fit]
Cc1ccc(CNC(=O)c2ccc3c(c2)CN(Cc2ccncc2F)CCO3)cc1	inconclusive: 50.1 µM [inhibitor, partial curve, poor fit]
